These results are taken from ChEMBL document CHEMBL4888484, “Replenishing the malaria drug discovery pipeline: Screening and hit evaluation of the MMV Hit Generation Library 1 (HGL1) against asexual blood stage Plasmodium falciparum ,using a nano luciferase reporter read-out” (2022).

Structures are written as SMILES. The campaign covered roughly 150,000 compounds. About 540 (0.36%) showed an effect of 50% or more. The list shows a part of the results.

For this assay, the system named is Plasmodium falciparum. Kind of assay: Primary screen in NF54 nanoGlo assay, in single point, at 2uM, 72h; a lower Z score goes with more inhibition. In kind it is functional, Erythrocyte. The note with it: timepoint 72 hour.
For the compound `Cn1nc(-c2cnccn2)cc1CNS(C)(=O)=O`, the % Inhibition (as a rule, the relative decrease from the control value, in per cent) came out at 23% and the Z score was -2.87.

For `O=S(=O)(c1cccc(N[C@@H]2COC3(CCC3)C2)c1)N1CCC(O)CC1`, the “% Inhibition” value is on record as -9% and the Z score came to 1.42.

For the compound `Cn1cnn(CC(=O)N[C@H]2CC23CCOCC3)c1=O`, the “% Inhibition” value was -15% and the Z score was found to be 1.55.

Turning to `Cn1c(CNC(=O)[C@@H]2CCCc3nccn32)nc2cccc(Cl)c21`, the “% Inhibition” value was found to be 11% and the Z score is -1.44.

Regarding `CCC(C)C(NC(=O)c1ccc(Cl)cc1)C(=O)OCc1nccn1CC(F)(F)F` (centres undefined), the “% Inhibition” value is recorded as 2% and the Z score is given as -0.21.

For the compound `c1ccc2c(c1)CCN(c1ncnc3c1nc1n3CCCCC1)C2`, the “% Inhibition” value came to 1% and the Z score is reported as -0.16.

Regarding `CCc1noc(C)c1NC(=O)[C@H]1CCc2[nH]nc(C(F)(F)F)c2C1`, the “% Inhibition” value is listed as -10% and the Z score was found to be 1.22.

Regarding `CC1CCCCC1CC(=O)N1CC2(CCOCC2)CCC1CO` (centres undefined), the “% Inhibition” value came to 9% and the Z score is on record as -1.17.

As to `Cc1noc(C)c1C(=O)NCc1csc(N2CCOCC2)n1`, the “% Inhibition” value is given as -16% and the Z score was determined as 1.59.

`CN(C)C(=O)c1cccnc1O[C@H]1CCN(S(=O)(=O)c2ccc3c(c2)CCC3)C1`: the “% Inhibition” value is on record as -7% and the Z score was determined as 1.06.

Take `Cc1c(Cl)ccc2ccc(N3CCC[C@H](c4nncn4C)C3)nc12`: the “% Inhibition” value was -3% and the Z score was 0.49.

In the case of `Cc1nc(CNC[C@@H](C(C)C)N2CCCC2)n(C)c1C`, the “% Inhibition” value is recorded as -9% and the Z score was found to be 1.57.

`N#C[C@H]1CCCN(C(=O)Nc2ccc(CCc3ccccn3)cc2)C1`: the “% Inhibition” value is listed as -13% and the Z score is 2.11.

On to `CC(C)C(=O)Nc1ccc([C@H](C(=O)O)N(C)Cc2ccon2)cc1`, for which the “% Inhibition” value is -5% and the Z score amounted to 0.77.

As for `CC1(C)[C@H](C(=O)Nc2ccc(Cl)c(Cl)c2)CC[C@]1(C)C(=O)O`, the “% Inhibition” value was 2% and the Z score is recorded as -0.31.

Take `O=C(c1cn(C2CCN(S(=O)(=O)c3ccccc3Cl)CC2)nn1)N1CCCCC1`: the “% Inhibition” value is -10% and the Z score is 1.06.

Take `CCCc1csc(NC(=O)N(C)Cc2cc(C)on2)n1`: the “% Inhibition” value is listed as -2% and the Z score came to 0.27.

With `CCCc1nn(-c2ccc(Cl)cc2)c(=O)n1CC(=O)N1CCNC(=O)C1`, the “% Inhibition” value is recorded as -15% and the Z score is given as 2.98.

Regarding `CCS(=O)(=O)c1cc(OC)ccc1C#N`, the “% Inhibition” value is listed as -4% and the Z score is listed as 0.53.

`CCN1CCN(c2cccc(NC(=O)c3cc(F)cc4c(=O)c5cc(F)ccc5[nH]c34)c2)CC1`: the “% Inhibition” value amounted to 95% and the Z score is listed as -17.54.

On to `Cc1nnc(NCc2cccnc2N2CCOCC2)c(C#N)c1C`, for which the “% Inhibition” value was -2% and the Z score is recorded as 0.24.

As for `Cc1noc([C@H](C)S(=O)(=O)Cc2cc(C)on2)n1`, the “% Inhibition” value was 35% and the Z score is on record as -0.8.

As to `COc1ccccc1C1(CNC(=O)NC2CCCCC2)CCOCC1`, the “% Inhibition” value is 1% and the Z score is listed as -0.13.

As for `CN1CCN(C[C@@H]2CN(C(=O)Cc3ccc(Cl)cc3)C[C@@H]2CO)CC1`, the “% Inhibition” value was -12% and the Z score was determined as 2.04.

As to `COc1cccc(N2C(=O)CN(CCC(C)C)[C@H]3CS(=O)(=O)C[C@H]32)c1`, the “% Inhibition” value was found to be 5% and the Z score is recorded as -0.71.

Take `O=C(c1ccc2nsnc2c1)N1CC[C@H](Oc2cnsn2)C1`: the “% Inhibition” value is -12% and the Z score is given as 2.3.

On to `CCC[C@H]1CN(Cc2cccc(-c3ccco3)c2)C[C@@H]1NS(C)(=O)=O`, for which the “% Inhibition” value is reported as -7% and the Z score is recorded as 1.34.

As for `O=C(Nc1cc(-c2ccccn2)no1)c1cccs1`, the “% Inhibition” value worked out at 3% and the Z score was -0.31.

On to `C=C(C)C1OCCC1CNC(=O)N(C)Cc1ccoc1C` (centres undefined), for which the “% Inhibition” value is reported as -4% and the Z score was 0.48.

In the case of `CCN1CC(=O)N[C@H]2CN(C(=O)c3cncc(O)n3)CC[C@@H]2OCc2cccc(c2)Oc2cc(OC(C)C)cc(c2)C1=O`, the “% Inhibition” value came out at 1% and the Z score was -0.26.

As for `Cc1cc(C(=O)N2CCN(Cc3cccnc3)[C@@H]3CS(=O)(=O)C[C@@H]32)[nH]n1`, the “% Inhibition” value is given as -12% and the Z score was found to be 1.49.

`CO[C@@]12CC[C@@H](O)C[C@@H]1N(C(=O)c1cc(=O)n(-c3ccccc3)[nH]1)CC2`: the “% Inhibition” value is -14% and the Z score was 1.27.

As to `O=C(NC1CCCC1)C1CCN(c2ccc(-c3ccco3)nn2)CC1`, the “% Inhibition” value is listed as 0% and the Z score was 0.02.

As for `Cc1cnc(C2CC2)n1CCNC(=O)Cc1ccccc1`, the “% Inhibition” value is -14% and the Z score turned out to be 1.75.

Take `CCc1ccc(-c2cc(C)no2)cc1S(=O)(=O)N(Cc1ccco1)[C@@H](C)c1ccccc1`: the “% Inhibition” value is given as -5% and the Z score stood at 0.63.

With `c1ccc(Cc2noc(CN3CCn4ccnc4C3)n2)cc1`, the “% Inhibition” value is reported as -9% and the Z score was 1.96.

On to `C=CCn1ncc(CN(C2CCCC2)[C@@H](C)CC)c1C`, for which the “% Inhibition” value was -8% and the Z score came out at 1.2.

In the case of `CCOC[C@@]12CCN(C(C)=O)C[C@@H]1CN(C(=O)Cc1cccc(OC)c1)C2`, the “% Inhibition” value is listed as -7% and the Z score came to 0.87.

For `O=C(Cn1cc(-c2ccccn2)ccc1=O)NC1CCOCC1`, the “% Inhibition” value is given as 12% and the Z score is -1.46.

In the case of `COCCN(Cc1ccc(OC)c(OS(=O)(=O)c2cccc(C(F)(F)F)c2)c1)C(=O)Nc1ccccc1OC`, the “% Inhibition” value is given as -13% and the Z score came out at 1.45.

`Cc1cc(CN2CC[C@H](CN(C)Cc3scnc3C)C2)no1`: the “% Inhibition” value came out at 15% and the Z score was -1.89.

For the compound `O=C(CCc1c[nH]c2ccccc12)Nc1ccccc1C(=O)O`, the “% Inhibition” value was determined as 32% and the Z score is -3.59.
